Measured values: article PMC4336329 (PLoS ONE, 2015)
Hit rate of the full screen: of about 310,000 compounds, about 14,000 (4.5%) showed an effect of 50% or more. The effect is printed as a negative number. The list shows a part of the results.

The compounds below were run against human ether-à-go-go-related gene (hERG) potassium channel (human, UniProt Q12809) (assay: primary screen, population patch clamp on CHO cells stably expressing hERG).
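Note: peak tail current of the secondary pulse compared with the same well before compound.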

human ether-à-go-go-related gene (hERG) potassium channel, sequence (Q12809 whole entry, looked up): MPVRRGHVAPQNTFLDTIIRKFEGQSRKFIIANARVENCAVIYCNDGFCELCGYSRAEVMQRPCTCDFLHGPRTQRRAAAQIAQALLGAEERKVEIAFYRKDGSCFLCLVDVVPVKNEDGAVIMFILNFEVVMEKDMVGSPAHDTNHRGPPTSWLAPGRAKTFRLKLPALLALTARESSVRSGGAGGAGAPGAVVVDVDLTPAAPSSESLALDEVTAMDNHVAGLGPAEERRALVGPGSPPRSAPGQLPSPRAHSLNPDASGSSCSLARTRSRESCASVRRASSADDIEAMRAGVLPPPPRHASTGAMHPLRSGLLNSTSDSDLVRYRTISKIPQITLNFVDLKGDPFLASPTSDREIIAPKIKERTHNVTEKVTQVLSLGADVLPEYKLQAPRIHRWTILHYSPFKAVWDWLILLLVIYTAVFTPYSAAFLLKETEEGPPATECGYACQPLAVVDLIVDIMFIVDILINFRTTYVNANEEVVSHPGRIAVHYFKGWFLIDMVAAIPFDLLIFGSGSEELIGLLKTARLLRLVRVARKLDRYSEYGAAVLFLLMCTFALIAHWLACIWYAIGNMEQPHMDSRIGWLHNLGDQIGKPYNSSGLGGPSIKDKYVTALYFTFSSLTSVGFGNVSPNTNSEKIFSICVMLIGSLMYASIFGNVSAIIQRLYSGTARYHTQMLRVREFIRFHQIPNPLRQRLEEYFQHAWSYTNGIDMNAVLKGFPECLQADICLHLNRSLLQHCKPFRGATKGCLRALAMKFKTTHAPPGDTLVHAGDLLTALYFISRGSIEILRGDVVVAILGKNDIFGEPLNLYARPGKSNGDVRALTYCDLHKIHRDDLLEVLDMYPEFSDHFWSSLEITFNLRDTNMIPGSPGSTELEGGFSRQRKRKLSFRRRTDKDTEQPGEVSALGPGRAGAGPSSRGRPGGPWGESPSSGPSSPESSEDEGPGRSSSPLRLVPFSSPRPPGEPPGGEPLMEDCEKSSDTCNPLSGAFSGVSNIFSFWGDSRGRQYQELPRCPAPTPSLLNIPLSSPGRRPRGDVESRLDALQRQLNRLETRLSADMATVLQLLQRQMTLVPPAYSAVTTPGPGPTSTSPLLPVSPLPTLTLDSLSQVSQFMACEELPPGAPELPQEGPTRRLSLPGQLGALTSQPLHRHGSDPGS

Row | SMILES | hERG current change (%, negative = inhibition) at 10uM [%]
1 | COc1ccc(NC(=O)C(C)Sc2nnc(C3CC3)n2C2CC2)cc1 (stereo not shown) | -13.3
2 | COc1ccc(-c2nnc(SCC(=O)NC(=O)Cc3ccccc3)n2C)cc1 | -5.69
3 | CC(=O)c1c(C)c(C)c2n1CCn1c(C)ccc1-2 | 13.1
4 | CCN(CC)S(=O)(=O)c1ccc(C(=O)NC(=S)N(CCO)Cc2ccccc2)cc1 | 13.3
5 | CCCc1[nH]nc2c1C(c1ccc(OCCN3CCOCC3)c(OC)c1)C(C#N)=C(N)O2 (stereo not shown) | -2.95
6 | COC(=O)c1cc(C(=O)OCC(=O)Nc2ccccc2OC(F)F)cc([N+](=O)[O-])c1 | -30.3
7 | COc1cc([N+](=O)[O-])ccc1NC(=O)Nc1cnccn1 | 5.34
8 | O=C1COc2ccc(-c3csc(=Nc4ccc(OC(F)F)cc4)n3CC3CCCO3)cc2N1 (stereo not shown) | -18.7
9 | COc1cc(CN2CCNC(=O)C2CC(=O)NCCC2=CCCCC2)cc(OC)c1 (stereo not shown) | 0.0765
10 | O=C(N/N=C/c1ccc([N+](=O)[O-])cc1)c1ccc(NS(=O)(=O)c2cccs2)cc1 | 6.35
11 | Cc1cccc(C(=O)NCCN2CCN(c3ccccc3)CC2)c1.Cl | -37.1
12 | O=[N+]([O-])c1cc(C(F)(F)F)cc([N+](=O)[O-])c1NCCNC(=S)Nc1cccc(F)c1 | -1.74
13 | COc1ccc(-n2cnc3c(cnn3CCC#N)c2=N)cc1 | -10.1
14 | CCC/C(=N\NC(=O)c1ccc(CSc2nncn2C)cc1)c1ccccc1 | -8.28
15 | COc1ccccc1/C=C(/C(=O)OCC(=O)Nc1ccccc1C(C)C)c1ccccc1 | 18.3
16 | Cc1cc(N2CCOCC2)nc2ccc(NC(=S)NC(C)C)cc12 | -12.4
17 | COc1ccc(NC(=O)c2ccc3c(c2)OCO3)cc1Cl | 5.02
18 | CN(CC(=O)Nc1ccccc1Sc1ccccc1)C1CCCCC1 | 2.53
19 | CCOCCCNC(=O)CCSc1ccc(C)cc1 | 8.23
20 | Cc1cccc(NC(=O)Nc2ccc(Cl)c(Cl)c2)n1 | 9.38
21 | C#CCOCCOCCOCCNc1nc(N2CCN(C(=O)C(Cc3ccc(O)cc3)n3cc(C(N)CC(C)C)nn3)CC2)nc(N2CCN(C(=O)C(Cc3cc4ccccc4[nH]3)n3cc(C(N)Cc4ccc(O)cc4)nn3)CC2)n1.Cl (stereo not shown) | -5.48
22 | COc1ccc(Nc2nc(N)nc(SCc3nnc(C)s3)n2)cc1 | -1.03
23 | COc1cc(CCC(=O)N2CCN(c3cccc(C)c3C)CC2)cc(OC)c1OC | -2.88
24 | CC(=O)N(C)C(c1ccc(N(C)C)cc1)c1nnnn1-c1c(C)cccc1C (stereo not shown) | -7.93
25 | COc1ccc(CN(C(=O)c2cc(=O)c3ccccc3o2)C2CCS(=O)(=O)C2)cc1 (stereo not shown) | -30.4
26 | N#Cc1ccc(OCC(=O)OCC(=O)NCCC2=CCCCC2)cc1 | -1.95

Row | SMILES | hERG current change (%, negative = inhibition) at 10uM [%]
27 | Cl.OC(c1ccc(Cl)cc1)c1nccc2ccccc12 (stereo not shown) | -17.4
28 | COc1ccc(C(=O)NCC(=O)OCc2ccc([N+](=O)[O-])cc2)cc1 | -58.3
29 | Cc1ccc(NC(=O)c2oc3ccccc3c2NC(=O)C2CCCO2)cc1C (stereo not shown) | -8.51
30 | COCCn1c(C)cc(/C=N/NC(=O)c2cc3ccccc3cc2O)c1C | 10.3
31 | COc1cccc(/C=N/n2c(=O)[nH]c3ccccc32)c1OC | 10.7
32 | COc1ccc(CN2CC34C=CC(O3)C(C(=O)O)C4C2=O)cc1 (stereo not shown) | -8.51
33 | COC(=O)[C@]1(C)N[C@H](c2ccc(SC3CCCCC3)c(OC)c2)[C@@H]2C(=O)N(C)C(=O)[C@@H]21.O=C(O)C(F)(F)F | -16.6
34 | CCc1cccc(OCC(=O)Nc2ccc(S(=O)(=O)Nc3onc(C)c3C)cc2)c1 | 8.4
35 | CCOc1ccc(S(=O)(=O)n2nc(C)cc2C)c2ccccc12 | 6.85
36 | CC(=O)N1CCC(N(CCN2CCOCC2)C(=S)Nc2cccc(C)c2C)CC1 | 8.75
37 | COc1cc(OC)c(OC)cc1/C=N/Nc1ncnc2c1[nH]c1ccc(C)cc12 | 1.59
38 | NC(=O)CSc1nnc(-c2ccco2)n1N | 4
39 | Cc1nnc(NC(=O)CSc2nnc(CNC(=O)c3ccc(S(=O)(=O)N(C)C)cc3)o2)s1 | 22.6
40 | COc1cccc(C(=O)NCC(=O)N/N=C/c2cccs2)c1 | -0.489
41 | Cc1nc(COc2ccc(C(=O)Nc3ccccc3N3CCOCC3)cc2)cs1 | -49.1
42 | O=C(O)c1cc(N/N=C/c2ccc(N3CCOCC3)s2)ccc1Cl | 6.61
43 | COc1ccc(-n2nc3c(c2NC(=O)C(C)Oc2ccccc2)CS(=O)C3)cc1 (stereo not shown) | 15
44 | [O-]/[N+](=C\c1ccncc1)c1ccc(Br)cc1 | 1.3
45 | Cc1ccccc1C(=O)Nc1c2c(nc3ccccc13)CCCC2 | -5.54
46 | O=C(Nc1ccc(C(=O)O)cc1)Nc1cccc([N+](=O)[O-])c1 | 32.1
47 | COc1cccc(NC(=O)c2ccc3c(c2)N(CC(=O)N2CCCCC2)C(=O)C(C)(C)O3)c1 | -6.71
48 | Cc1ccc(NC(=O)c2cc(S(=O)(=O)N3CCc4ccccc43)cn2C)cc1C | -11
49 | Cc1ccc(S(=O)(=O)/C=C/c2ccccc2)cc1 | -9.53
50 | CCOC(=O)C1=NN(C(=O)c2ccccc2)C(O)(c2ccc(C)cc2)C1 (stereo not shown) | -17.2
51 | N#Cc1ccc(-c2csc(NC(=O)c3cc(-c4cccs4)nc4ccccc34)n2)cc1 | 2.46
52 | COC(=O)c1c(NC(=O)CN2CCN(S(=O)(=O)c3ccccc3[N+](=O)[O-])CC2)sc2c1CCC(C)C2 (stereo not shown) | 17.6
